Data from ChEMBL document CHEMBL4888484, “Replenishing the malaria drug discovery pipeline: Screening and hit evaluation of the MMV Hit Generation Library 1 (HGL1) against asexual blood stage Plasmodium falciparum ,using a nano luciferase reporter read-out” (2022).
In all, about 150,000 compounds went through this assay and about 540 (0.36%) showed an effect of 50% or more. This is one part of the list.

Test system: Plasmodium falciparum
Test: Primary screen in NF54 nanoGlo assay, in single point, at 2uM, 72h; a lower Z score goes with more inhibition
Format: functional, Erythrocyte
Settings: timepoint 72 hour

Which “% Inhibition” value does the source give for `Cc1nc(-c2cc(S(=O)(=O)NCc3ccco3)cn2C)sc1C(=O)N1CCCC1` here?
Its value is -1%.

What about the Z score of the same compound?
Its Z score is 0.09.

Which results are given for `Cc1cccc(OC2CCN(c3nc(CO)cs3)CC2)c1`?
% Inhibition: -8%; Z score: 0.95

What does the source list for `CC(=O)N[C@H]1CCN(Cc2cn(-c3ccccc3F)nc2-c2cc(C)sc2C)C1`?
% Inhibition: 6%; Z score: -0.75

Which results are given for `CCn1ccc2cc(S(=O)(=O)N3CCC[C@H](C(=O)NCCCOC(C)C)C3)ccc21`?
% Inhibition: -8%; Z score: 1.28

How did the “% Inhibition” value turn out when `Cc1cc(C(=O)N2CCCCC2)c2c(=O)n(CC(=O)Nc3ccc(C(C)C)cc3)c(=O)n(C)c2n1` was run?
Its value is -2%.

And the Z score?
The Z score was 0.35.

With `O=C(CNC(=O)NCC1CCCC1)NCCCn1ccnc1` as the compound, how does the “% Inhibition” value read?
Its value is -8%.

What about the Z score of the same compound?
Its Z score is 1.43.

How did the “% Inhibition” value turn out when `Cc1ccc(C(=O)OC[C@H]2COC(=O)N2)c(F)c1` was run?
The value was -11%.

And the Z score?
Its Z score is 1.72.

Which results are given for `CCOc1cc(NCc2nc(C)c(C)o2)ncn1`?
% Inhibition: -5%; Z score: 0.91

With `CCOCC1CCCN(C(=O)NC(C)c2nccs2)C1` (centres undefined) as the compound, how does the “% Inhibition” value read?
The value was -4%.

What about the Z score of the same compound?
The Z score was 0.47.

With `CCCN(CCC)C(=O)CCC(=O)OCCNc1ncccn1` as the compound, how does the “% Inhibition” value read?
Its value is 1%.

And the Z score?
The Z score was -0.18.

Which “% Inhibition” value does the source give for `C=CCNC(=O)NCC1C(C)OC(C)(C)N1C(=O)OC(C)(C)C` (centres undefined) here?
The value was -10%.

What about the Z score of the same compound?
Its Z score is 0.97.

`O=C(CN1CCOCC1)Nc1ncc(Cc2cc(Cl)cc(Cl)c2)s1` was tested. Which “% Inhibition” value did it give?
Its value is -18%.

What about the Z score of the same compound?
The Z score was 3.26.

`O=C(Nc1nc2ccccc2s1)N1CCC[C@H]1c1ccncc1` was tested. Which “% Inhibition” value did it give?
Its value is 15%.

And the Z score?
The Z score was -1.91.

What does the source list for `CC1=C[C@@H](CN2CCN(c3ncccn3)CC2)[C@H](C(C)C)C[C@H]1Cc1nnc(C)o1`?
% Inhibition: -9%; Z score: 1.18

What does the source list for `O=C(NC1CCC(N2C(=O)CCC2=O)CC1)c1ccc(Cl)cc1O` (centres undefined)?
% Inhibition: 29%; Z score: -3.28

How did the “% Inhibition” value turn out when `COc1ncccc1CCNC(=O)N1CCO[C@](C)(C(F)F)C1` was run?
Its value is -3%.

What about the Z score of the same compound?
Its Z score is 0.6.

Which “% Inhibition” value does the source give for `COc1cccc(-c2ccc(N3CCC(NCc4nnc(C)o4)CC3)cc2)c1` here?
The value was 2%.

What about the Z score of the same compound?
The Z score was -0.3.

Which “% Inhibition” value does the source give for `CC(C)[C@@H]1CN(CCN2CCNC2=O)c2ccccc21` here?
The value was -7%.

What about the Z score of the same compound?
The Z score was 1.27.

What does the source list for `Cc1ccc2c(c1)c(=O)n(-c1cccc(Cl)c1)c(=O)n2CC(=O)NCc1cccnc1`?
% Inhibition: -3%; Z score: 0.49

For `CCCCNCCCOc1cc(C)cc(C(C)C)c1`, which “% Inhibition” value is on record?
Its value is -10%.

And the Z score?
Its Z score is 1.3.

How did the “% Inhibition” value turn out when `CC(C)c1nccn1Cc1nnc(-c2cccs2)o1` was run?
The value was -7%.

What about the Z score of the same compound?
Its Z score is 1.33.

Which results are given for `CC(=O)NCCCC(=O)N1CCC2(CCCCCC2)C1`?
% Inhibition: -11%; Z score: 1.21

How did the “% Inhibition” value turn out when `N=C(N)Nc1ccc(/C=C2\C=Cc3ccccc32)cc1` was run?
The value was -3%.

What about the Z score of the same compound?
Its Z score is 0.48.

With `CCOc1nccnc1N1C[C@@H](CN)[C@H](c2ccccc2)C1` as the compound, how does the “% Inhibition” value read?
The value was 4%.

And the Z score?
The Z score was -0.75.

`CC(C)CCN(CCC#N)c1ncnc2c1ncn2CC(CO)C1CCOC1` (centres undefined) was tested. Which “% Inhibition” value did it give?
Its value is 1%.

What about the Z score of the same compound?
The Z score was -0.2.

What does the source list for `Cc1ccc(Cl)cc1NC(=O)Cn1cnc2c(C(N)=O)nsc2c1=O`?
% Inhibition: -9%; Z score: 1.24

What does the source list for `Cc1ccc(-n2nc(C(C)(C)C)c(NC(=O)NCc3ccccc3)c2N)c(C)c1`?
% Inhibition: -1%; Z score: 0.2

`Cc1ccc(-c2ccc3nnc(CCC(=O)NC4CCC(C)CC4)n3n2)cc1C` (centres undefined) was tested. Which “% Inhibition” value did it give?
The value was -9%.

And the Z score?
The Z score was 1.19.

Which “% Inhibition” value does the source give for `O=C(c1c[nH]c2ccccc12)C(O)C(c1ccc(Cl)cc1)N1CCN(CCO)CC1` (centres undefined) here?
Its value is -2%.

And the Z score?
The Z score was 0.4.

How did the “% Inhibition” value turn out when `Cc1nn(C)cc1C(=O)CC(=O)c1cn(C)nc1C` was run?
The value was -3%.

And the Z score?
Its Z score is 0.43.

How did the “% Inhibition” value turn out when `CC[C@H]1C(=O)NCCN1C(=O)c1cc(-c2ccc(F)cc2)c(C)s1` was run?
The value was 21%.

And the Z score?
The Z score was -2.4.

`O=C(c1ccc(F)c(Cl)c1)N1C[C@@H]2CC[C@@H](C2)C1` was tested. Which “% Inhibition” value did it give?
Its value is -3%.

And the Z score?
The Z score was 0.6.

Which “% Inhibition” value does the source give for `Cc1nc(NC(=O)c2coc(C3CC3)n2)n(-c2ccc(F)cc2C)n1` here?
Its value is -6%.

What about the Z score of the same compound?
The Z score was 0.95.

With `CCn1nc(C)c(CNCc2c(C(=O)N3CCCCCC3)nc3cc(C)ccn23)c1C` as the compound, how does the “% Inhibition” value read?
Its value is -30%.

And the Z score?
Its Z score is 2.64.

`CCN(CCC(F)(F)F)C(=O)[C@H]1CC(=O)N(CC)[C@@H]1c1nccn1CC` was tested. Which “% Inhibition” value did it give?
Its value is 4%.

And the Z score?
Its Z score is -0.66.

How did the “% Inhibition” value turn out when `O=C(NCc1cccc(Cl)c1)c1coc(COc2ccc3c(c2)OCO3)n1` was run?
The value was -13%.

And the Z score?
Its Z score is 1.59.

What does the source list for `c1ccc(COCCc2noc([C@@H]3CCCCN3)n2)cc1`?
% Inhibition: -1%; Z score: 0.16

`O=C(NCc1cccnc1-c1ccncc1)[C@@H]1CCCO1` was tested. Which “% Inhibition” value did it give?
The value was -5%.

What about the Z score of the same compound?
The Z score was 0.96.

Which “% Inhibition” value does the source give for `O=C1OC[C@H]2CN(c3ncnc4sccc34)CCN12` here?
The value was 8%.

What about the Z score of the same compound?
Its Z score is -1.28.

`CCn1c(Oc2cccnc2)nc2c1c(=O)n(C)c(=O)n2C` was tested. Which “% Inhibition” value did it give?
Its value is 7%.

And the Z score?
Its Z score is -1.16.

`Cc1cc(C(=O)N2CCC(C)C2CO)c(C)n1-c1cccc(Cl)c1` (centres undefined) was tested. Which “% Inhibition” value did it give?
Its value is 5%.

And the Z score?
The Z score was -0.73.

What does the source list for `COc1ccc2c(CC(=O)N3CCC[C@H]3C(N)=O)coc2c1C`?
% Inhibition: -6%; Z score: 1.24
